These results are taken from patent US10905706B2, “Compositions and methods to accelerate resolution of acute lung inflammation” (The Johns Hopkins University, priority 2015, dated 2021).

This assay concerns WT C57BL/6 mice. The experiment in a line: IL-4 treatment after i.t. LPS, C57BL/6 mice. The conditions noted are these: day 4, flow cytometry.

With “IL-4: recombinant IL-4 cytokine (PeptroTech); in the examples given i.p. as a complex with anti-IL-4 antibody”, the “FIZZ1-expressing monocytes or macrophages within the lung” value was “significantly more”.
